PubChem BioAssay AID894 (National Center for Advancing Translational Sciences (NCATS), 2007)
The campaign covered roughly 150,000 compounds. About 6,500 (4.3%) were called active. The inconclusive results got no clear call from the source; some entries with a clear call stand among them for comparison. Calls follow the shape of the dose curve; as a rule, active = well fitted inhibition curve with a large enough effect (not every such curve was filed as active); inconclusive = small, poorly fitted or top-dose-only effect, or another doubt; inactive = no such curve, though single readings can be large or run the other way. No potency is given beside an inconclusive call; the fits are too rough. Some structures have more than one record in an assay (separate samples or runs), and their calls can disagree.

The compounds below were run against 15-hydroxyprostaglandin dehydrogenase [NAD(+)] (Homo sapiens) (UniProt P15428) (assay: qHTS Assay for Inhibitors of HPGD (15-Hydroxyprostaglandin Dehydrogenase)). Conditions: purified HPGD, NADH fluorescence kinetic, PGE2 substrate; activity change, negative = inhibition: active compounds read low.
Chain of UniProt P15428 (P15428 whole entry, looked up): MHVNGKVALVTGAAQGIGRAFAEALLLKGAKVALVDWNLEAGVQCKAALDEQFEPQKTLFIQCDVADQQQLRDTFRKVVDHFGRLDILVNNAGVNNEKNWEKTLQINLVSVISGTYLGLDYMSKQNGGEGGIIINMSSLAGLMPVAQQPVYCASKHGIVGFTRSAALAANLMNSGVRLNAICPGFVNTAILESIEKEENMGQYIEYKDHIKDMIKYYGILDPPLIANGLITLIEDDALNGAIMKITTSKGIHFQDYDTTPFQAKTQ
In short: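 20 nM HPGD preincubated 15 min at room temperature with compound in 50 mM Tris-HCl pH 8, 0.01% Tween 20. Started with 1 mM NAD+ and 30 uM prostaglandin E2; NADH fluorescence (360/450 nm) read 5 times over 30-s intervals, last minus first.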
% is scaled to controls: 0 for no effect and ±100 for the full control effect; potency is read from the fitted curve at half-maximal effect; tags tell the direction and shape of the fitted curve.

Structure (SMILES) | activity change, negative = inhibition | Potency
Nc1c(OCC(=O)O)ccc2cc(S(=O)(=O)O)ccc12 | inactive: -14.8% | –
CCOC(=O)c1sc(-c2ccccc2)cc1NC(=O)CSc1nnnn1C | – | inconclusive [inhibitor, single point]
COc1cc(C2Nn3c(nnc3-c3ccccc3OC)S2)ccc1O (configuration not stated) | – | inconclusive [inhibitor, single point]
CC(C)(C)NC(=O)COc1ccc(CNc2ccc3[nH]c(=O)[nH]c3c2)cc1 | – | inconclusive [inhibitor, partial curve]
Cc1ccc(SCCNC(=S)Nc2ccccc2)cc1 | inactive: -26% | –
COC(=O)c1cnc(SC)nc1C | inactive: -0.644% | –
N#Cc1ccc(CN2CCCC3(CCN(C(=O)c4cc(C(F)(F)F)cc(C(F)(F)F)c4)CC3)C2)cc1 | inactive: -11.7% | –
CCn1ncc(C2C(C(=O)Nc3ccc(C)cn3)=C(C)NC3=C2C(=O)CCC3)c1C (configuration not stated) | – | inconclusive [inhibitor, partial curve]
NCC(=O)Nc1ccccc1 | inactive: -3.61% | –
C/C(CCc1oc2ccc(Cl)cc2c1-c1ccc(C)o1)=N\O | – | active: 31.6 µM
O=C(CSc1nc2ccccc2n1S(=O)(=O)c1cccc([N+](=O)[O-])c1)NCCc1ccccc1 | – | inconclusive [inhibitor, partial curve]
O=C(N/N=C/c1ccncc1)c1cccc(NC(=O)c2ccc(Cl)cc2)c1 | – | inconclusive [inhibitor, partial curve, poor fit]
COc1cccc(/C=N/c2oc(-c3ccccc3)cc2C#N)c1O | – | inconclusive [inhibitor, partial curve]
O=C(c1cc2nc(-c3ccco3)cc(C(F)(F)F)n2n1)N1CCN(Cc2ccccc2)CC1 | – | inconclusive [inhibitor, partial curve]
O=C(O)CSc1nnc(CNc2ccccc2Cl)n1-c1ccccc1 | – | inconclusive [inhibitor, partial curve]
O=C(COc1ccccc1O)c1cccs1 | – | inconclusive [inhibitor, partial curve]
Cc1cccc(/C=N/Nc2cc(N3CCOCC3)nc(N3CCOCC3)n2)c1 | – | inconclusive [inhibitor, partial curve, poor fit]
CCOc1ccc(C2C(C#N)=C(N)Oc3cc(C)n(Cc4ccco4)c(=O)c32)cc1OC (configuration not stated) | inactive: -6.22% | –
CCCNC(=O)c1csc2c1CCCCC2 | – | inconclusive [inhibitor, partial curve]
COc1ccc(OCc2n[nH]c(=S)o2)cc1 | – | inconclusive [inhibitor, partial curve]
COc1cc2nc3c(c([Si](C)(C)C(C)(C)C)c2cc1OC)Cn1c-3cccc1=O | – | inconclusive [inhibitor, full curve]
Nc1nc(N)c2nn(-c3ccc(C(=O)O)cc3)nc2n1 | – | inconclusive [inhibitor, partial curve]
COc1ccc(Cn2c(N)c(C#N)c3nc4ccccc4nc32)cc1 | – | inconclusive [inhibitor, full curve]
O=C(CC1Oc2ccc(Cl)cc2NC1=O)NC1CCCCCC1 (configuration not stated) | inactive: -6.45% | –

Structure (SMILES) | activity change, negative = inhibition | Potency
Cc1ccc(-n2c3nc(=O)[nH]c(=O)c-3cc3cc([N+](=O)[O-])ccc32)cc1C | – | active: 31.6 µM
CN(CC(=O)NCc1ccc2c(c1)OCO2)S(=O)(=O)c1ccc(Br)s1 | – | inconclusive [inhibitor, partial curve]
O=C(COC(=O)CC(c1ccccc1)c1ccccc1)NCc1ccc(Cl)cc1 | inactive: -29.4% | –
CCc1c2c(nc3c(C(C)C)cccc13)-c1cccc(=O)n1C2 | – | inconclusive [inhibitor, partial curve]
Cc1ccc([N+](=O)[O-])cc1-c1ccc(/C=C(\C#N)c2[nH]nc(N)c2C#N)o1 | – | active: 2.24 µM
O=C(Nc1ccccc1Cl)c1ccccc1Cc1ccccc1 | inactive: -12.4% | –
O=C(CCCOc1ccc(Cl)cc1Cl)NCCCO | inactive: -9.9% | –
O=C(CCCOc1ccc(Cl)cc1Cl)N1CCc2ccccc2C1 | – | active: 2.51 µM
O=C(Nc1ccc(-c2nc3ccccc3[nH]2)cc1)C1CCCO1 (configuration not stated) | – | inconclusive [inhibitor, partial curve]
CC(C)NC(=O)c1ccc(C2SCC(=O)N2Cc2ccccc2)cc1 (configuration not stated) | – | active: 3.16 µM
O=C(Nc1ccc2c(c1)nc1n2CCN(C2CCCCC2)C1)NC1CCCCC1 | – | inconclusive [inhibitor, partial curve]
C/C(=N\NC(=O)c1ccc(O)cc1)c1ccc2c(c1)Nc1ccccc1S2 | inactive: -15.8% | –
CC(C)OC(=O)c1c(NC(=O)CCC(=O)O)sc2c1CCCCC2 | inactive: -4.02% | –
CCCCc1cc(=O)oc2cc(C)cc(OCc3nn[nH]n3)c12 | – | inconclusive [inhibitor, partial curve]
c1ccc(-c2oc3ncnc(NCCN4CCOCC4)c3c2-c2ccccc2)cc1 | – | inconclusive [inhibitor, partial curve]
COc1ccc2c(-c3ccccc3)cc3nnnn3c2c1 | – | inconclusive [inhibitor, single point]
O=C(COC(=O)Cc1c(Cl)cccc1Cl)NCCC1=CCCCC1 | – | active: 12.6 µM
O=C1CC(c2ccco2)CC2=C1C(c1ccccc1)n1nc(C(F)(F)F)nc1N2 (configuration not stated) | – | inconclusive [inhibitor, full curve]
COc1ccc(C(=O)CC(Nc2ccc([N+](=O)[O-])cc2)c2ccc(OC)cc2)cc1 (configuration not stated) | inactive: -12.3% | –
Cc1ccc(S(=O)(=O)NC(CC(C)C)C(=O)Oc2ccc3c4c(c(=O)oc3c2)CCC4)cc1 (configuration not stated) | – | inconclusive [inhibitor, full curve]
CN(C)CC(O)COc1ccc(-c2ccc(C#N)cc2)cc1 (configuration not stated) | – | inconclusive [inhibitor, single point]
CCNC(=O)c1sc(-c2ccccc2)nc1C | – | inconclusive [inhibitor, single point]
COc1cc(NC(=O)c2ccco2)c(OC)cc1NC(=O)CCC(=O)Nc1cc(C)ccc1C | – | inconclusive [inhibitor, single point]
COc1ccccc1/C=C/C=C1\Oc2c(ccc(O)c2CN2CCN(CCO)CC2)C1=O | – | active: 15.8 µM

Structure (SMILES) | activity change, negative = inhibition | Potency
Cc1cc(-c2n[nH]c(=S)n2/N=C/c2ccc(C)s2)n[nH]1 | – | active: 25.1 µM
CCCC(C(=O)O)N1C(=O)/C(=C2\C(=O)N(C)c3ccccc32)SC1=S (configuration not stated) | – | active: 25.1 µM
Cc1ccc([N+](=O)[O-])cc1N=C(c1cccc(Br)c1)N1CCOCC1 | inactive: 0.462% | –
O=C1NC(c2cccs2)Nc2ccccc21 (configuration not stated) | – | inconclusive [inhibitor, partial curve]
COc1ccc(-c2cc(-c3ccccc3)nc(-c3ccc4c(c3)NC(=O)CO4)c2)cc1 | – | inconclusive [inhibitor, partial curve]
COc1ccc(CN(C)c2ncnc(N)n2)cc1 | inactive: -4.76% | –
CCCc1cc(=O)n2[nH]c(-c3ccccc3)cc2n1 | – | inconclusive [inhibitor, partial curve]
CCCCc1ccc(NS(=O)(=O)N(C)C)cc1 | – | inconclusive [inhibitor, partial curve]
Cc1oc2cc(O)ccc2c(=O)c1-c1cnn(-c2ccccc2)c1 | – | inconclusive [inhibitor, partial curve]
Cn1c(-c2cc3ccc(OC(=O)C(C)(C)C)cc3oc2=O)nc2ccccc21 | – | inconclusive [inhibitor, partial curve]
O=c1c2nnn(Cc3ccccc3)c2ncn1-c1ccccc1 | – | inconclusive [inhibitor, partial curve]
CC(C)(C)C1CCc2c(sc(N)c2C(N)=O)C1 (configuration not stated) | – | inconclusive [inhibitor, partial curve]
CCCN1C(=O)c2ccccc2NC1c1cc(OC)c(OC)c(OC)c1 (configuration not stated) | – | inconclusive [inhibitor, partial curve]
COCC(=O)N1CCC[C@@]2(CCN(c3ccncc3)C2)C1 | inactive: -2.7% | –
CN1CCCC[C@@H]1CCN1c2ccccc2Sc2ccc(S(C)=O)cc21 (some centres not stated) | – | active: 3.16 µM
CC(=O)Nc1ccc(C(=O)NC2CCCC2)cc1 | – | inconclusive [inhibitor, partial curve]
Fc1ccc(C[n+]2csc3ccccc32)cc1 | – | active: 10 µM
COC(=O)CCSc1cc([N+](=O)[O-])cc2c1c(C1OCCO1)nn2-c1ccccc1 | – | inconclusive [inhibitor, partial curve]
CN1CCN(C(=O)/C(=C\c2ccccc2)c2ccccc2)CC1 | – | active: 17.8 µM
N#Cc1cc2c(=O)n3ccccc3nc2n(CCN2CCOCC2)c1=O | – | inconclusive [inhibitor, partial curve]
O=C1Nc2cc(Cl)cnc2N2CCCC12 (configuration not stated) | – | inconclusive [inhibitor, single point]
CC(C)c1nc2oc3c(=O)[nH]cnc3c2c2c1CCC2 | – | inconclusive [inhibitor, partial curve]
Cc1ccc(OCCN2CCN(CC(O)Cn3c4ccccc4c4ccccc43)CC2)cc1 (configuration not stated) | – | inconclusive [inhibitor, partial curve]
CCN=C(Nc1ccc2c(c1)OCO2)SC1CC(=O)N(c2ccccc2F)C1=O (configuration not stated) | inactive: -5.19% | –
